# According to the supplement of paper PMC8728848:
# This is one part of the list.
# B1: Tulipa lectin C-1 (Tulipa hybrid) (protein)
# chain: MGMALVVALAVALASTVAGQQNVLLSGNTLANEESLSYGSVKFIMQNDCNLVLYGGGFQSNTASNGKKCTLTLNNNGHLIINDGLTGRVVWRNSNAQNPVGRYAAVLRPAPGTADVAIYGPAIWSTNDEFSYQESGVVPHKLGRETPNLPRMQNLLFSGQTLYGTDGMLSSNDGSTTFELSKCQLSLSLGNEVKWKVAPTVENGKENYCHVRLDHRGHLSLLNDDNVVLFRSIPTNGVEPPIGDYVLIVEKGAGYIYGPPIWNTYDNRRYKVASA
# Experiments:
# Test in all cases: glycan array binding signal (z-score within array); higher = stronger binding
# Details in all cases: glycan notation: IUPAC condensed, linker removed
# [1] = molecular target: Neu5Ac(a2-3)Gal(b1-3)GalNAc(b1-3)Gal(a1-4)Gal(b1-4)Glc
# Procedure, shortened: (§1)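 Columns mapping to the same glycan were averaged after glycan names were converted to IUPAC-condensed notation. The data come from 3228 arrays in the Consortium for Functional Glycomics database, limited to those with an available protein sequence. Binding is reported as a within-array Z-score averaged across arrays of one protein sequence and across linkers.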
# [2] = molecular target: Neu5Ac(a2-3)Gal(b1-3)GalNAc(b1-4)[Neu5Ac(a2-3)]Gal(b1-4)Glc
# Procedure, shortened: as §1
# [3] = molecular target: Neu5Ac(a2-3)Gal(b1-3)GalNAc6S
# Procedure, shortened: as §1
# [4] = molecular target: Neu5Ac(a2-3)Gal(b1-3)GlcNAc
# Procedure, shortened: as §1
# [5] = molecular target: Neu5Ac(a2-3)Gal(b1-3)GlcNAc(b1-3)Gal(b1-4)GlcNAc
# Procedure, shortened: as §1
# [6] = molecular target: Neu5Ac(a2-3)Gal(b1-3)GlcNAc6S
# Procedure, shortened: as §1
# [7] = molecular target: Neu5Ac(a2-3)Gal(b1-3)[Fuc(a1-4)]GlcNAc
# Procedure, shortened: as §1
# [8] = molecular target: Neu5Ac(a2-3)Gal(b1-3)[Fuc(a1-4)]GlcNAc(b1-3)Gal(b1-4)[Fuc(a1-3)]GlcNAc
# Procedure, shortened: as §1
# [9] = molecular target: Neu5Ac(a2-3)Gal(b1-3)[Neu5Ac(a2-3)Gal(b1-4)]GlcNAc
# Procedure, shortened: as §1
# [10] = molecular target: Neu5Ac(a2-3)Gal(b1-3)[Neu5Ac(a2-6)]GalNAc
# Procedure, shortened: as §1
# [11] = molecular target: Neu5Ac(a2-3)Gal(b1-4)Glc
# Procedure, shortened: as §1
# [12] = molecular target: Neu5Ac(a2-3)Gal(b1-4)GlcNAc
# Procedure, shortened: as §1
# [13] = molecular target: Neu5Ac(a2-3)Gal(b1-4)GlcNAc(b1-3)Gal(b1-4)GlcNAc
# Procedure, shortened: as §1
# [14] = molecular target: Neu5Ac(a2-3)Gal(b1-4)GlcNAc(b1-3)Gal(b1-4)GlcNAc(b1-3)Gal(b1-4)GlcNAc
# Procedure, shortened: as §1
# [15] = molecular target: Neu5Ac(a2-3)Gal(b1-4)GlcNAc(b1-3)Gal(b1-4)[Fuc(a1-3)]GlcNAc
# Procedure, shortened: as §1
# [16] = molecular target: Neu5Ac(a2-3)Gal(b1-4)GlcNAc6S
# Procedure, shortened: as §1
# [17] = molecular target: Neu5Ac(a2-3)Gal(b1-4)[Fuc(a1-3)]GlcNAc
# Procedure, shortened: as §1
# [18] = molecular target: Neu5Ac(a2-3)Gal(b1-4)[Fuc(a1-3)]GlcNAc(b1-3)Gal
# Procedure, shortened: as §1
# [19] = molecular target: Neu5Ac(a2-3)Gal(b1-4)[Fuc(a1-3)]GlcNAc(b1-3)Gal(b1-4)GlcNAc
# Procedure, shortened: as §1
# [20] = molecular target: Neu5Ac(a2-3)Gal(b1-4)[Fuc(a1-3)]GlcNAc(b1-3)Gal(b1-4)[Fuc(a1-3)]GlcNAc(b1-3)Gal(b1-4)[Fuc(a1-3)]GlcNAc
# Procedure, shortened: as §1
# [21] = molecular target: Neu5Ac(a2-3)Gal(b1-4)[Fuc(a1-3)]GlcNAc6S
# Procedure, shortened: as §1
# [22] = molecular target: Neu5Ac(a2-3)Gal6S(b1-4)GlcNAc
# Procedure, shortened: as §1
# [23] = molecular target: Neu5Ac(a2-3)Gal6S(b1-4)[Fuc(a1-3)]GlcNAc
# Procedure, shortened: as §1
# [24] = molecular target: Neu5Ac(a2-3)GalNAc
# Procedure, shortened: as §1
# [25] = molecular target: Neu5Ac(a2-3)GalNAc(b1-4)GlcNAc
# Procedure, shortened: as §1
# [26] = molecular target: Neu5Ac(a2-3)[GalNAc(b1-4)]Gal(b1-4)Glc
# Procedure, shortened: as §1
# [27] = molecular target: Neu5Ac(a2-3)[GalNAc(b1-4)]Gal(b1-4)GlcNAc
# Procedure, shortened: as §1
# [28] = molecular target: Neu5Ac(a2-3)[Neu5Ac(a2-6)]GalNAc
# Procedure, shortened: as §1
# [29] = molecular target: Neu5Ac(a2-6)Gal(b1-4)GlcNAc
# Procedure, shortened: as §1
# [30] = molecular target: Neu5Ac(a2-6)Gal(b1-4)GlcNAc(b1-2)Man(a1-3)[Neu5Ac(a2-6)Gal(b1-4)GlcNAc(b1-2)Man(a1-6)]Man(b1-4)GlcNAc(b1-4)GlcNAc
# Procedure, shortened: as §1
# [31] = molecular target: Neu5Ac(a2-6)Gal(b1-4)GlcNAc(b1-3)Gal(b1-4)GlcNAc
# Procedure, shortened: as §1
# [32] = molecular target: Neu5Ac(a2-6)Gal(b1-4)GlcNAc(b1-3)Gal(b1-4)[Fuc(a1-3)]GlcNAc(b1-3)Gal(b1-4)[Fuc(a1-3)]GlcNAc
# Procedure, shortened: as §1
# [33] = molecular target: Neu5Ac(a2-6)Gal(b1-4)GlcNAc6S
# Procedure, shortened: as §1
# [34] = molecular target: Neu5Ac(a2-6)GalNAc
# Procedure, shortened: as §1
# [35] = molecular target: Neu5Ac(a2-6)GalNAc(b1-4)GlcNAc
# Procedure, shortened: as §1
# [36] = molecular target: Neu5Ac(a2-8)Neu5Ac
# Procedure, shortened: as §1
# [37] = molecular target: Neu5Ac(a2-8)Neu5Ac(a2-3)Gal(b1-4)Glc
# Procedure, shortened: as §1
# [38] = molecular target: Neu5Ac(a2-8)Neu5Ac(a2-3)[GalNAc(b1-4)]Gal(b1-4)Glc
# Procedure, shortened: as §1
# [39] = molecular target: Neu5Ac(a2-8)Neu5Ac(a2-8)Neu5Ac
# Procedure, shortened: as §1
# [40] = molecular target: Neu5Ac(a2-8)Neu5Ac(a2-8)Neu5Ac(a2-3)Gal(b1-4)Glc
# Procedure, shortened: as §1
# [41] = molecular target: Neu5Ac(a2-8)Neu5Ac(a2-8)Neu5Ac(a2-3)[GalNAc(b1-4)]Gal(b1-4)Glc
# Procedure, shortened: as §1
# [42] = molecular target: Neu5Ac(a2-8)Neu5Ac(a2-8)Neu5Ac(a2-8)Neu5Ac(a2-3)[GalNAc(b1-4)]Gal(b1-4)Glc
# Procedure, shortened: as §1
# [43] = molecular target: Neu5Ac9Ac(a2-6)Gal(b1-4)GlcNAc
# Procedure, shortened: as §1
# [44] = molecular target: Neu5Gc(a2-3)Gal(b1-3)GlcNAc
# Procedure, shortened: as §1
# [45] = molecular target: Neu5Gc(a2-3)Gal(b1-3)[Fuc(a1-4)]GlcNAc
# Procedure, shortened: as §1
# [46] = molecular target: Neu5Gc(a2-3)Gal(b1-4)Glc
# Procedure, shortened: as §1
# [47] = molecular target: Neu5Gc(a2-3)Gal(b1-4)GlcNAc
# Procedure, shortened: as §1
# [48] = molecular target: Neu5Gc(a2-3)Gal(b1-4)[Fuc(a1-4)]GlcNAc
# Procedure, shortened: as §1
# [49] = molecular target: Neu5Gc(a2-6)Gal(b1-4)GlcNAc
# Procedure, shortened: as §1
# [50] = molecular target: Neu5Gc(a2-6)GalNAc
# Procedure, shortened: as §1
binder,measurement,setting,value
B1,glycan array binding signal (z-score),[1],-0.212
same,glycan array binding signal (z-score),[2],-0.197
same,glycan array binding signal (z-score),[3],-0.218
same,glycan array binding signal (z-score),[4],-0.208
same,glycan array binding signal (z-score),[5],-0.235
same,glycan array binding signal (z-score),[6],-0.209
same,glycan array binding signal (z-score),[7],-0.116
same,glycan array binding signal (z-score),[8],-0.142
same,glycan array binding signal (z-score),[9],-0.242
same,glycan array binding signal (z-score),[10],-0.211
same,glycan array binding signal (z-score),[11],-0.223
same,glycan array binding signal (z-score),[12],-0.219
same,glycan array binding signal (z-score),[13],-0.216
same,glycan array binding signal (z-score),[14],-0.214
same,glycan array binding signal (z-score),[15],-0.239
same,glycan array binding signal (z-score),[16],-0.227
same,glycan array binding signal (z-score),[17],-0.225
same,glycan array binding signal (z-score),[18],-0.244
same,glycan array binding signal (z-score),[19],-0.171
same,glycan array binding signal (z-score),[20],-0.207
same,glycan array binding signal (z-score),[21],-0.228
same,glycan array binding signal (z-score),[22],-0.195
same,glycan array binding signal (z-score),[23],-0.156
same,glycan array binding signal (z-score),[24],-0.234
same,glycan array binding signal (z-score),[25],-0.163
same,glycan array binding signal (z-score),[26],-0.117
same,glycan array binding signal (z-score),[27],-0.212
same,glycan array binding signal (z-score),[28],-0.237
same,glycan array binding signal (z-score),[29],-0.169
same,glycan array binding signal (z-score),[30],5.26
same,glycan array binding signal (z-score),[31],-0.066
same,glycan array binding signal (z-score),[32],-0.093
same,glycan array binding signal (z-score),[33],-0.091
same,glycan array binding signal (z-score),[34],-0.226
same,glycan array binding signal (z-score),[35],-0.003
same,glycan array binding signal (z-score),[36],-0.238
same,glycan array binding signal (z-score),[37],-0.233
same,glycan array binding signal (z-score),[38],-0.232
same,glycan array binding signal (z-score),[39],-0.224
same,glycan array binding signal (z-score),[40],-0.212
same,glycan array binding signal (z-score),[41],-0.234
same,glycan array binding signal (z-score),[42],-0.235
same,glycan array binding signal (z-score),[43],-0.081
same,glycan array binding signal (z-score),[44],-0.218
same,glycan array binding signal (z-score),[45],-0.209
same,glycan array binding signal (z-score),[46],-0.214
same,glycan array binding signal (z-score),[47],-0.243
same,glycan array binding signal (z-score),[48],-0.23
same,glycan array binding signal (z-score),[49],-0.145
same,glycan array binding signal (z-score),[50],-0.204
